Source: the RNAGym collection of RNA variant scans (doi:10.7554/elife.90254)
The source gives no read counts; variants with many changes may rest on few reads.

B1: OR4K15 (parent)
chain: GUUAACGGUCAUAGGCCAUGGAAACUAGGAGCACCAUUUCGCUGCCAGUGAAGAAAUGAACAAAGAAAAUCUGGGCCAGGCAGGCAUCAAAAGAAAUAGUCUUGCGCUCAACCAGAAAGUCUGUAAUCAUUUUAAGGGUA

Variants of: B1
Assay: self-cleavage, relative activity (ratio to wild type); higher = more cleavage; in vitro, sequencing; the parent is a self-cleaving ribozyme
Variant A33G U87C A94G has a self-cleavage of 0.9. A33G U72C A86G A135G showed a self-cleavage of 0.29. A36G A66U A90G showed a self-cleavage of 1.88. Variant A36U U37G U108A U132C has a self-cleavage of 0.02. For A33G U132C G137A, the self-cleavage was 0.32. Variant C35U A82G A114U has a self-cleavage of 0.02. Variant U37C A55G A92G A140G has a self-cleavage of 1.39. U37A A94G A134G gave a self-cleavage of 2.08. U37C A52U G106A showed a self-cleavage of 0.01. Variant A36U A54G A67G A92G A114C has a self-cleavage of 0.03. A36C G48A A54G U130C gave a self-cleavage of 0.73. With A36U A56G A116G A126G the self-cleavage was 0.74. U37C A51G C88U C128A showed a self-cleavage of 1.91. With C35U A64G A92G the self-cleavage was 1.02. With A36G U87C A116G the self-cleavage was 1.43. A33U A56G A90G A92G gave a self-cleavage of 1.06. Variant U37C A47U A82U A111G has a self-cleavage of 0.02. A36U A52U U87A U100A A126G U127C showed a self-cleavage of 0.12. For A36U U122A A135G, the self-cleavage was 1.38. A36G C107U A114G A129G gave a self-cleavage of 0. U37C A59G A62G A69G gave a self-cleavage of 1.01. In the case of A33G U38C A63G, the self-cleavage is reported as 0.79. For A36G A63G U72A A96C U102A, the self-cleavage was 0.08. Work on U37C A52G A94G yielded a self-cleavage of 0.89. Variant A36U A78U U103C U132C has a self-cleavage of 0.16. U37C A54G A56G gave a self-cleavage of 1.54. Variant A33G U43A U132C has a self-cleavage of 0.92. In the case of A33G U72G A92G, the self-cleavage is reported as 0.03. Work on A33G G80U A82G A90G yielded a self-cleavage of 0.05. C34U A67G G83A A117G U131C showed a self-cleavage of 2.72. In the case of A33G U39A U127A, the self-cleavage is reported as 1.09. For A33U A51G A56G U130C, the self-cleavage was 0.99. Variant A36G A68G U130C has a self-cleavage of 1.22. In the case of A33U A55G U103C U122C, the self-cleavage is reported as 0.49. With A36U U37A A52U U87C A114U A118G U127A the self-cleavage was 0.01. A36G A52G A56G U139C gave a self-cleavage of 1.17. In the case of U37C A54G A86U U97C A129G, the self-cleavage is reported as 1.18. Work on A36U A68U U122C yielded a self-cleavage of 1.99. Variant A36C U49A A66G U87C has a self-cleavage of 1.82. C35A U43C U130C U131C gave a self-cleavage of 1.04. A33G U43A A117G A135G gave a self-cleavage of 1.71. A36G A91G A111G showed a self-cleavage of 0.02. In the case of C34G U87C A90G A96G U124G, the self-cleavage is reported as 0.36. A33U U102C A111C showed a self-cleavage of 0. With C34A A52C U131C the self-cleavage was 1.44. A36G U100C A118G showed a self-cleavage of 1.57. A36G U39C A125G gave a self-cleavage of 0.95. With A33U U39C A69G U72A A90G A95G A96G A114G the self-cleavage was 0.08. U37A U39A A67G gave a self-cleavage of 1.24. With U37C A54G U131C the self-cleavage was 0.57. A33G U57C A66G showed a self-cleavage of 1.37. A33U A67G A117G showed a self-cleavage of 2.67. A33U A36U A47G U102C gave a self-cleavage of 1.43. With U37C A86G A126G the self-cleavage was 1.13. In the case of A36G A60G A95G, the self-cleavage is reported as 1.58. In the case of U37C A66U A82U, the self-cleavage is reported as 0.28. In the case of U37C A47G U57C A111G A118G U122C, the self-cleavage is reported as 0.01. With U37C A66G A68G A82G A94G U100C the self-cleavage was 0.92. For U37C A69G A94G A95U, the self-cleavage was 1.24. Work on A36U A60G A69U G74A A82G A89G yielded a self-cleavage of 0.08. Work on A36U C40U A55G U120A A126G yielded a self-cleavage of 0.28. Work on A36U A56G A95G A114U yielded a self-cleavage of 0.1. Work on U37C A56G A60G A64G U122C yielded a self-cleavage of 0.65. A33U A47G G74U U102C gave a self-cleavage of 0.11. For A33U A86G A92G, the self-cleavage was 1.83. Variant A33U A55G A89G has a self-cleavage of 1.27. A33G C42A A67U showed a self-cleavage of 0.56. U37C A55G U70A U102C A116G gave a self-cleavage of 1.66. In the case of C34U A92G A111G, the self-cleavage is reported as 0.02. With U37C A64G A94G U97A C105G A111G U120C the self-cleavage was 0. Work on U37C A55G A126G yielded a self-cleavage of 0.76. With C34U A91G A116G U122A A125G U132A the self-cleavage was 0.18. U37C A47G A54G U72C A89U A135G gave a self-cleavage of 0.4. A36G A78U A95G A96G showed a self-cleavage of 0.22. Variant C35A U37C G115A has a self-cleavage of 0.09. For A33G U57G A69G A90G A96G, the self-cleavage was 0.5. With U37C A68G U108C the self-cleavage was 0.01. U37C A67G A90G A114U showed a self-cleavage of 0. Variant A36G U70A C128U has a self-cleavage of 0.33. Work on A33G U38C A78G A89G A111G U124C yielded a self-cleavage of 0.02. With A33U A54G A118U the self-cleavage was 0.78. In the case of A33U A51G A62G G73U A110G, the self-cleavage is reported as 0.01. With A36C U37A U131C the self-cleavage was 1.95. In the case of A36G A98G U124A, the self-cleavage is reported as 0.11.
